# Data from PMC12820563.
# The list shows a part of the results. The list includes weakly bound sequences.
# Target: T1, MBP-FoxP3dN (UniProt Q99JB6)
# T1 sequence: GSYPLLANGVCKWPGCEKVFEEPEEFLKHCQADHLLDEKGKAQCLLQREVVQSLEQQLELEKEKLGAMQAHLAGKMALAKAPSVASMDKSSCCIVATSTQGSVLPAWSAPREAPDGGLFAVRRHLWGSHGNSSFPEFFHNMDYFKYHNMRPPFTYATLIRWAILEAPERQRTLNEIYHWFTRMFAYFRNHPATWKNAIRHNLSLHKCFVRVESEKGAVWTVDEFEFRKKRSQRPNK
# Assay: PD-seq (MBP pull-down with sequencing)
# Conditions: 20 mM Tris-HCl pH 7.5, 100 mM NaCl, 1.5 mM MgCl2, 0.4 uM protein, 0.1 uM dsDNA library, 30 min, room temperature, amylose pull-down; high values mean tight binding; double strand, one strand shown
row,Sequence,binding signal (RPM ratio (pull-down/input))
1,GATGATTGTTCTCCCAGCTGATGAATTGACTCCCTCGAGTAAACAAATTTTCCTAATCTTTCTGTTCAAGCGCCATCTAC,0.386
2,GATGATTGTTCTCCCAGCTGATGAATTCGCACTCTCGAGTAAACAAATTTTCCTAATCTTTCTGTTCAAGCGCCATCTAC,0.544
3,GATGATTGTTCTCCCAGCTGATGAATTATAGAATTCGAGTAAACAAATTTTCCTAATCTTTCTGTTCAAGCGCCATCTAC,0.645
4,GATGATTGTTCTCCCAGCTGATGAATTTCTGTCCTCGAGTAAACAAATTTTCCTAATCTTTCTGTTCAAGCGCCATCTAC,0.313
5,GATGATTGTTCTCCCAGCTGATGAATTGTAAGGGTCGAGTAAACAAATTTTCCTAATCTTTCTGTTCAAGCGCCATCTAC,0.368
6,GATGATTGTTCTCCCAGCTGATGAATTCATCTTTTCGAGTAAACAAATTTTCCTAATCTTTCTGTTCAAGCGCCATCTAC,0.348
7,GATGATTGTTCTCCCAGCTGATGAATTCCGAGAATCGAGTAAACAAATTTTCCTAATCTTTCTGTTCAAGCGCCATCTAC,0.186
8,GATGATTGTTCTCCCAGCTGATGAATTCCCACTATCGAGTAAACAAATTTTCCTAATCTTTCTGTTCAAGCGCCATCTAC,0.33
9,GATGATTGTTCTCCCAGCTGATGAATTTACCGTATCGAGTAAACAAATTTTCCTAATCTTTCTGTTCAAGCGCCATCTAC,0.733
10,GATGATTGTTCTCCCAGCTGATGAATTGATACTCTCGAGTAAACAAATTTTCCTAATCTTTCTGTTCAAGCGCCATCTAC,0.723
11,GATGATTGTTCTCCCAGCTGATGAATTTGGGGCGTCGAGTAAACAAATTTTCCTAATCTTTCTGTTCAAGCGCCATCTAC,0.667
12,GATGATTGTTCTCCCAGCTGATGAATTTCTGAAGTCGAGTAAACAAATTTTCCTAATCTTTCTGTTCAAGCGCCATCTAC,0.186
13,GATGATTGTTCTCCCAGCTGATGAATTCTCAAGTTCGAGTAAACAAATTTTCCTAATCTTTCTGTTCAAGCGCCATCTAC,0.226
14,GATGATTGTTCTCCCAGCTGATGAATTACCCTACTCGAGTAAACAAATTTTCCTAATCTTTCTGTTCAAGCGCCATCTAC,0.313
15,GATGATTGTTCTCCCAGCTGATGAATTTTTGGGGTCGAGTAAACAAATTTTCCTAATCTTTCTGTTCAAGCGCCATCTAC,0.233
16,GATGATTGTTCTCCCAGCTGATGAATTTCGGCGGTCGAGTAAACAAATTTTCCTAATCTTTCTGTTCAAGCGCCATCTAC,0.285

row,Sequence,binding signal (RPM ratio (pull-down/input))
1,GATGATTGTTCTCCCAGCTGATGAATTGGGGAAGTCGAGTAAACAAATTTTCCTAATCTTTCTGTTCAAGCGCCATCTAC,0.194
2,GATGATTGTTCTCCCAGCTGATGAATTTTGCACATCGAGTAAACAAATTTTCCTAATCTTTCTGTTCAAGCGCCATCTAC,1.71
3,GATGATTGTTCTCCCAGCTGATGAATTTCTTATATCGAGTAAACAAATTTTCCTAATCTTTCTGTTCAAGCGCCATCTAC,0.379
4,GATGATTGTTCTCCCAGCTGATGAATTTAATGCGTCGAGTAAACAAATTTTCCTAATCTTTCTGTTCAAGCGCCATCTAC,1.63
5,GATGATTGTTCTCCCAGCTGATGAATTGCGGCATTCGAGTAAACAAATTTTCCTAATCTTTCTGTTCAAGCGCCATCTAC,7.34
6,GATGATTGTTCTCCCAGCTGATGAATTCAAATCCTCGAGTAAACAAATTTTCCTAATCTTTCTGTTCAAGCGCCATCTAC,0.253
7,GATGATTGTTCTCCCAGCTGATGAATTCTACAGATCGAGTAAACAAATTTTCCTAATCTTTCTGTTCAAGCGCCATCTAC,0.224
8,GATGATTGTTCTCCCAGCTGATGAATTGGCCTAATCGAGTAAACAAATTTTCCTAATCTTTCTGTTCAAGCGCCATCTAC,0.36
9,GATGATTGTTCTCCCAGCTGATGAATTCCTTCGATCGAGTAAACAAATTTTCCTAATCTTTCTGTTCAAGCGCCATCTAC,0.204
10,GATGATTGTTCTCCCAGCTGATGAATTTCCTCCATCGAGTAAACAAATTTTCCTAATCTTTCTGTTCAAGCGCCATCTAC,0.199
11,GATGATTGTTCTCCCAGCTGATGAATTCCATGATTCGAGTAAACAAATTTTCCTAATCTTTCTGTTCAAGCGCCATCTAC,0.625
12,GATGATTGTTCTCCCAGCTGATGAATTGAATCCCTCGAGTAAACAAATTTTCCTAATCTTTCTGTTCAAGCGCCATCTAC,0.317
13,GATGATTGTTCTCCCAGCTGATGAATTTAGGCTGTCGAGTAAACAAATTTTCCTAATCTTTCTGTTCAAGCGCCATCTAC,0.592
14,GATGATTGTTCTCCCAGCTGATGAATTAACACGCTCGAGTAAACAAATTTTCCTAATCTTTCTGTTCAAGCGCCATCTAC,0.485
15,GATGATTGTTCTCCCAGCTGATGAATTAAGGAAATCGAGTAAACAAATTTTCCTAATCTTTCTGTTCAAGCGCCATCTAC,0.293
